Source: PubChem BioAssay AID485344 (National Center for Advancing Translational Sciences (NCATS), 2010)
Several values for one entry are separate records, joined by “and”; a condition that tells them apart may be missing. Equal entries are not always repeated. Among all 340,000 compounds or so, about 6,900 (2%) were called active. Rule as the data show it: active = inhibition above about 30%; inactive = below that, where a call was filed. The list shows a part of the results, in another mix than the full data. Where no call is shown, the source filed none.

Biological target: D(2) dopamine receptor (Homo sapiens) (UniProt P14416)
UniProt P14416, sequence (P14416 whole entry, looked up): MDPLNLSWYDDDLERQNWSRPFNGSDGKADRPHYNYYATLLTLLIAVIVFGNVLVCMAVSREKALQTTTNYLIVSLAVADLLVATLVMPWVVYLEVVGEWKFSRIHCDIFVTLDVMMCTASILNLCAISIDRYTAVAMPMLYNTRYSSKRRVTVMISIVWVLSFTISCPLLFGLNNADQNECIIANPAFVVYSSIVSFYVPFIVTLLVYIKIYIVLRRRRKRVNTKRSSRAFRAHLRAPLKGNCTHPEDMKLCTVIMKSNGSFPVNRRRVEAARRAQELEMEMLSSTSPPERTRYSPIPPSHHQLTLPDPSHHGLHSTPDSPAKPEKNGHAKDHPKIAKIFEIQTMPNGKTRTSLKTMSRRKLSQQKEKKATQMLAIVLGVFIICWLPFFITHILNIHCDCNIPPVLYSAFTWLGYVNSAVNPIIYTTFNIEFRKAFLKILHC
Experiment: HTS Assay for Allosteric Antagonists of the Human D2 Dopamine Receptor: Primary Screen for Antagonists; also: 0% is about no effect
Details: HEK293 TREx D2 cells, calcium flux, dopamine EC80; at 10 µM; stronger effect = higher value
Method in brief: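 Antagonism is scored as inhibition of an EC80 dopamine-evoked calcium signal in a force-coupled, tetracycline-inducible HEK293 T-REx D2 line, with compound present 180 s before agonist.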

Compound | inhibition
COc1ccc(-c2nn(-c3ccccc3)cc2C(=O)Nc2ccccc2OC)cc1 | 13.9%
CCn1cc(C(=O)N2CCN(c3ccccc3OC)CC2)c(=O)c2cc(S(=O)(=O)N3CCCCC3)ccc21 | 13.6%
CC(C)CN(c1ccccc1)S(=O)(=O)c1nnc(NC(=O)c2ccco2)s1 | 3.66% and active: 67.8%
CC(=O)c1c(C)oc2ccc(N(C(=O)Oc3ccccc3)S(=O)(=O)c3ccc(Br)cc3)cc12 | 5.27%
Cc1cccc(C(=O)Nc2ccccc2-c2nc(-c3ccccc3)no2)c1 | -4.3%
CC1=C(c2ccc(C)c(C)c2)S(=O)(=O)N=C1N1CCN(c2cccc(C(F)(F)F)c2)CC1 | -7.14%
O=C(/C=C/c1cccc(F)c1)NC1CCN(Cc2ccccc2)CC1 | active: 56.4%
Cc1ccc(NC(=O)Cn2c(=O)n(-c3ccc(CC(=O)NCC4CCCO4)cc3)c(=O)c3ccccc32)cc1 (centres undefined) | 5.4%
CCOc1ccc(-n2c(=O)c3c4c(sc3n(Cc3cccc(Cl)c3)c2=O)CCCC4)cc1 | 7.52%
COCCCNC(=O)Cn1c(=O)n(CCCC(=O)NCc2ccc(C)cc2)c(=O)c2ccccc21 | 11.4%
CCCC(=O)N(c1ccc2oc(-c3ccccc3)c(C(=O)OCC)c2c1)S(=O)(=O)c1ccc(C)cc1 | 2.25%
Cc1ccc(/C=C(\C#N)c2nc(-c3cc4c(ccc5ccccc54)oc3=O)cs2)cc1 | 3.76%
O=C(NCC(c1ccc2c(c1)OCO2)N1CCOCC1)c1ccc(F)cc1 (centres undefined) | -19.6%
CCCCN1CC(c2nc3ccccc3n2CCCCOc2c(C)cccc2C)CC1=O (centres undefined) | 7.07%
Cc1cc(C)c2c(c1)[C@@H]1C=CC[C@@H]1[C@H](c1ccc(S(=O)(=O)N3CCOCC3)cc1)N2 | active: 35%
CCn1c(CNC(=O)c2ccc(OC)cc2)nnc1SCC(=O)Nc1cccc(C)c1C | 14.5%
CCN(CC)C(CNS(=O)(=O)c1ccc(Cl)cc1)c1ccccc1 (centres undefined) | active: 39.3%
Cc1ccc(NC(=O)CSc2nc3ccc(NC(=O)c4cccs4)cc3s2)c(C)c1 | 21.7%
CC1CCC(C(C)C)C(OC(=O)C[n+]2cc(-c3ccc(Cl)cc3)n3c2CCCCC3)C1 (centres undefined) | active: 33.1%
CCOC(=O)c1c(C)oc2nc(C)nc(NCC3CCN(Cc4cccc(C)c4)CC3)c12 | -8.29%
Cc1cc2nn(-c3ccc(F)cc3)nc2cc1NC(=O)c1ccc(OC(C)C)cc1 | -14.3%
Cc1ccc2nc(Cl)c3cc(C(=O)N(C)C4CCCCC4)sc3c2c1 | -14.7%
CC1CN(c2ncnc3c2cnn3-c2ccc(Cl)cc2)CC(C)O1 (centres undefined) | active: 31.2%
CCOC(=O)c1sc(C)c2c(=O)n(Cc3ccc(Cl)cc3)c(C)nc12 | active: 37.7%

Compound | inhibition
COc1ccc(C2c3cccn3CCN2S(=O)(=O)c2ccccc2[N+](=O)[O-])cc1OC (centres undefined) | -0.851%
O=C(NCC(c1ccc2c(c1)OCO2)N1CCOCC1)c1ccccc1F (centres undefined) | 15.5%
CCc1ccc(CNC(=O)CCc2c(C)nn(-c3ccc(N4CCCCC4)nn3)c2C)cc1 | 0.205%
Cc1cccn2cc(-c3cccc(NS(=O)(=O)c4ccc(Cl)c(Cl)c4)c3)nc12 | 1.08%
CCc1ccc2occ(CC(=O)Nc3c(C(=O)Nc4ccc(OC)cc4)oc4ccccc34)c2c1 | 13.5%
CC(CNC(=O)Cn1ccc2cc(S(=O)(=O)N3CCCCC3)ccc21)c1ccccc1 (centres undefined) | 1.7%
CC(COc1ccccc1)NC(C)C(O)c1ccc(O)cc1 (centres undefined) | active: 90.3%
COc1ccc(-c2cc(C(F)F)n3ncc(C(=O)Nc4cc(OC)ccc4OC)c3n2)cc1 | -2.78%
CCOc1ccc(NC(=O)Cc2coc3ccc(C)cc23)cc1 | -3.02%
COc1ccccc1NC(=O)CSc1ccc(-c2sc(C)nc2C)nn1 | 13.8%
COc1cccc(CNCCSc2nnnn2C)c1OCc1ccc(Cl)cc1Cl | 5.58%
COc1ccccc1CNC(=O)Cn1c(=O)oc2cc(S(=O)(=O)N3CCC(C)CC3)ccc21 | -12.6%
CCC(Nc1ccc(-c2nc(-c3ccco3)no2)cc1[N+](=O)[O-])c1ccccc1 (centres undefined) | 5.21%
CN(C)C(CNC(=O)c1ccc(-c2ccccc2)cc1)c1ccccc1 (centres undefined) | active: 30.7%
Cc1cccc(-c2nc(CCNC(=O)Cc3ccc(F)cc3)cs2)c1 | -24.2%
COc1ccc(-c2c(C#N)c(SCC(=O)Nc3ccccc3C)nc(C)c2C(=O)Nc2ccccc2)cc1OC | -4.74%
COCCCNC(=O)CSc1nc(-c2cccc(F)c2)[nH]c1-c1ccccc1 | -6.12%
N#C/C(=C\c1ccc(Cl)cc1)C(=O)NCC1CCCO1 (centres undefined) | 4.52%
Cn1cc(S(=O)(=O)c2ccccc2)c(=O)c2cc(F)c(N3CCOCC3)cc21 | -6.38%
COc1ccc(CCN2C(=O)N(c3ccc(F)cc3)C(=O)C2CC(=O)Nc2ccccc2)cc1 (centres undefined) | 5.48%
CCC1CCCCN1S(=O)(=O)c1ccc(NC(=O)c2cc(=O)c3ccccc3o2)cc1 (centres undefined) | -6.69%
CCN(CCCNC(=O)c1cc2c(=O)[nH]c3ccccc3c2s1)c1ccccc1 | -11.9%
O=S(=O)(c1ccc(-n2cnnn2)cc1)N1CCN(c2ccccc2F)CC1 | 0.0819%
O=C(Nc1nc(-c2ccc(Br)cc2)ns1)c1ccc(F)cc1 | 6.21%

Compound | inhibition
CCOc1cccc(-c2c(C(=O)N/N=C/c3cccs3)nnn2-c2nonc2N)c1 | active: 31.8%
CC(=O)c1cccc(NC(=O)Cn2c(SCC(=O)Nc3ccc(F)cc3)nc3ccccc32)c1 | 7.5%
Cn1nc(-c2ccc(Cl)cc2)c2cc(C(=O)NCCCN3CCCC3)sc21 | active: 33%
Cc1c2cnn(CC(=O)NCc3ccccc3)c(=O)c2c(C)n1Cc1cccc(Cl)c1 | -4.99%
CCOc1ccc(-n2c(C)nc3c(cnn3-c3ccc(C)cc3)c2=O)cc1 | -7.42%
COc1ccc(S(=O)(=O)N(Cc2nc(-c3cccc(C)c3)no2)C2CCCCC2)cc1 | 6.07%
Cc1ccccc1Cn1c(SCc2ccc(C(=O)NCc3cccs3)cc2)nc2ccncc21 | -14.8%
Cc1cccc(OCc2nnc(SCC(=O)Nc3ccc(C)cc3C)o2)c1 | -11.5%
COc1ccccc1N1CCN(S(=O)(=O)c2ccc3c(c2)oc(=O)n3C)CC1 | 0.604%
CCCSCCCNC(=O)C1CCN(C(=O)c2cc3sccc3n2C)CC1 | -14.3%
Cc1ccc(NC(=O)CSc2nc(-c3ccc(F)cc3)cc(C(F)(F)F)c2C#N)cc1 | -4.27%
O=C(CCn1c(=O)c2cccn2c2ccc(F)cc21)NCc1ccccc1F | 3.16%
Cc1cccc(NC(=O)Cn2c(=O)n(Cc3ccc(C(=O)NCc4ccc5c(c4)OCO5)cc3)c(=O)c3ccccc32)c1 | 12.4%
CCNC(=O)CC1C(=O)N(c2ccccc2)C(=O)N1Cc1ccc(F)cc1 (centres undefined) | -15.3%
CCOc1ccc(C(=O)c2cn(CC(=O)Nc3cc(OC)cc(OC)c3)c3ccc(F)cc3c2=O)cc1 | -18.7%
Cc1ccc(CCNC(=O)CCn2c(=O)c3cccn3c3ccc(F)cc32)cc1 | -4.88%
Fc1cccc(F)c1-c1nc(-c2ccncc2)no1 | -3.53%
COc1cccc(N(C(C)=O)c2nc(C)cc(C)c2C#N)c1 | active: 36.4%
Cc1cc(=O)n2nc(N3CCC(C(=O)Nc4ccc(C(C)C)cc4)CC3)sc2n1 | 3.92%
CC(=O)c1cccc(NC(=O)CCc2c(C)nc3c(-c4ccc(F)cc4)c(C)nn3c2C)c1 | 22.6%
O=C(Nc1ccccc1)N1CCN(C(=O)c2nsc3ccccc23)CC1 | -17.7%
Cc1nc(-c2ccc(Cl)cc2)sc1CCNC(=O)c1ccco1 | -4.15%
Cc1ccc(-n2c(=O)c3c4c(sc3n(Cc3ccccc3F)c2=O)CCC4)cc1C | -11.5%
Cc1coc2cc3oc(=O)c(CC(=O)NCc4ccc(F)cc4)c(C)c3cc12 | 27.7%

Compound | inhibition
Cc1ccc(O)c(-c2ccnc3cc(-c4ccc(Cl)cc4)nn23)c1 | -5.1%
COc1cc(-c2nc3sccn3c2Nc2cccc(C)c2)ccc1O | 3.13%
Cc1ccccc1NC(=O)CCc1c(C)nn(-c2ccc(N3CCCCC3)nn2)c1C | -2.25%
Oc1ccccc1-c1nc(/C=C/c2ccccc2Cl)no1 | -13.2%
Cc1ccc(Cn2c(=O)n(Cc3nc(-c4ccccc4)no3)c(=O)c3cc4c(cc32)OCO4)cc1 | 6.98%
COc1ccccc1OCCCn1c(C2CC(=O)N(c3ccccc3Cl)C2)nc2ccccc21 (centres undefined) | -0.489%
COc1ccc(C(=O)Nc2ccc3nc(SCc4ccc(C)cc4)sc3c2)cc1 | -4.24%
COc1ccc(C(=O)Nc2ccc(-c3cc4ccccc4oc3=O)c(C)c2)cc1Br | 3.41%
Cc1ccc(C)c(N2CCN(C(=O)CCCn3ncn4c(cc5occc54)c3=O)CC2)c1 | -19.1%
CCOc1ccc(CNC(=O)CCn2nc(C)c3c(C)n(-c4ccccc4)nc3c2=O)cc1 | -14%
CCc1ccc(-n2c(=O)c3c(C)c(C(=O)N(C)C)sc3n(Cc3cccc(C)c3)c2=O)cc1 | 14.2%
COc1ccc(N2CCN(CCOc3ccc4c(C)cc(=O)oc4c3)CC2)cc1 | active: 72.3%
CN(C)c1ccc(CNC(=O)CCCN2C(=O)CCn3nc(-c4cccn4C)cc32)cc1 | 8.09%
Fc1ccc(-n2cc(CNCCc3ccncc3)c(-c3ccccc3Cl)n2)cc1 | active: 31.3%
CCOC(=O)C1CCN(c2nc(-c3ccc(Br)cc3)nc3ccccc23)CC1 | -7.12%
O=C(Nc1ccc(Cl)cc1)N1CCC(CN2CCCC2)CC1 | 15.1%
CC(=O)c1cccc(NC(=O)C(Cc2ccccc2)NS(=O)(=O)c2ccc(Br)s2)c1 (centres undefined) | 11.5%
Cc1cccc(CCNC(=O)Cn2ncc3c(=O)oc4ccccc4c32)c1 | 7.59%
Cc1ccc2c(c1)C(c1ccccc1)N(C(=O)c1ccc(OC(C)C)cc1)CC(=O)N2 (centres undefined) | -3.57%
COc1ccc(Cn2cc(C(=O)c3ccc(OC)cc3)c(=O)c3cc4c(cc32)OCCO4)cc1 | -5.16%
COc1ccc(OC)c(NC(=O)c2cn3c4c(ccc(Cl)c4c2=O)OC(C)C3)c1 (centres undefined) | 7.56%
CCCCOc1ccc(C(=O)NCC2(N3CCN(C)CC3)CCCCC2)cc1 | 5.47%
